Experimental data published in the supplement of paper PMC4967469.
pIC50: −log10 of the molar value. The IC50 comes from the fitted curve, where viability falls to half of the control; fits outside the tested doses are given as limits. The AUC spans the tested range (256-fold, ending at the top dose) of the same fit; values near 1 show little effect. For some assays here: An inferred top dose is not printed in the source and was worked back from the curve model. For some assays here: Where an entry number is given, a second screen of the drug exists; the two often differ.

Legend:
Experiment in all cases: Viability of human cancer cell lines after 72 h of drug (GDSC screen)
Cytarabine = compound: Nc1ccn([C@@H]2O[C@H](CO)[C@@H](O)[C@@H]2O)c(=O)n1 [Cytarabine]; details: top dose 2 µM
Method: (§1)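 Human cancer cell lines in 384-well plates, medium with 10% serum, drug for 72 h over a 256-fold dose range (nine 2-fold or five 4-fold steps up to the top dose). Adherent lines were fixed and stained with the nucleic acid dye Syto60, suspension lines read with resazurin; signal relative to control wells, capped at 0 and 100%. One two-parameter sigmoid per drug and line, fitted in a mixed model over all curves with the slope shared within a line.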

KU-55933 = compound: O=c1cc(-c2cccc3c2Sc2ccccc2S3)oc(N2CCOCC2)c1 [KU-55933]; details: top dose 10 µM
Method: as §1

MPS-1-IN-1 = compound: COc1cc(N2CCC(O)CC2)ccc1Nc1cc(Nc2ccccc2S(=O)(=O)C(C)C)c2cc[nH]c2n1 [MPS-1-IN-1]; details: top dose 20 µM; top dose inferred
Method: as §1

GSK269962A = compound: CCn1c(-c2nonc2N)nc2cnc(Oc3cccc(NC(=O)c4ccc(OCCN5CCOCC5)cc4)c3)cc21 [GSK269962A]; details: top dose 5 µM; screen: GDSC drug entry 1192; top dose inferred
Method: as §1

CP466722 = compound: COc1cc2ncnc(-n3nc(-c4ccccn4)nc3N)c2cc1OC [CP466722]; details: top dose 16 µM; top dose inferred
Method: as §1

ABT-869 = compound: Cc1ccc(F)c(NC(=O)Nc2ccc(-c3cccc4[nH]nc(N)c34)cc2)c1 [ABT-869]; details: top dose 1.024 µM; top dose inferred
Method: as §1

QL-X-138 = compound: C=CC(=O)Nc1cc(-n2c(=O)ccc3cnc4ccc(-c5cn[nH]c5)cc4c32)ccc1C [QL-X-138]; details: top dose 10.24 µM; top dose inferred
Method: as §1

Thapsigargin = compound: C/C=C(/C)C(=O)O[C@H]1C(C)=C2[C@H]([C@@H]1OC(=O)CCCCCCC)[C@@](C)(OC(C)=O)C[C@H](OC(=O)CCC)[C@@]1(O)[C@H]2OC(=O)[C@@]1(C)O [Thapsigargin]; details: top dose 0.512 µM; top dose inferred
Method: as §1

CHIR-99021 = compound: Cc1cnc(-c2cnc(NCCNc3ccc(C#N)cn3)nc2-c2ccc(Cl)cc2Cl)[nH]1 [CHIR-99021]
Method: as §1

Zibotentan = compound: COc1nc(C)cnc1NS(=O)(=O)c1cccnc1-c1ccc(-c2nnco2)cc1 [Zibotentan]; details: top dose 20 µM; top dose inferred
Method: as §1

ABT-888 = compound: C[C@]1(c2nc3c(C(N)=O)cccc3[nH]2)CCCN1 [ABT-888]; details: top dose 5 µM; top dose inferred
Method: as §1

(5Z)-7-Oxozeaenol = compound: COc1cc(O)c2c(c1)/C=C/C[C@H](O)[C@H](O)C(=O)/C=C\C[C@H](C)OC2=O [(5Z)-7-Oxozeaenol]; details: top dose 10 µM; top dose inferred
Method: as §1

[1] = top dose 2.56 µM, screen: GDSC drug entry 154
[2] = top dose 10 µM, screen: GDSC drug entry 1241, top dose inferred

Cell Line | AUC (Cytarabine) | pIC50 (Cytarabine) | AUC (KU-55933) | pIC50 (KU-55933) | AUC (MPS-1-IN-1) | pIC50 (MPS-1-IN-1) | AUC (GSK269962A) | pIC50 (GSK269962A) | AUC (CP466722) | pIC50 (CP466722) | AUC (ABT-869) | pIC50 (ABT-869) | AUC (QL-X-138) | pIC50 (QL-X-138) | AUC (Thapsigargin) | pIC50 (Thapsigargin) | AUC (CHIR-99021; [1]) | pIC50 (CHIR-99021; [1]) | AUC (CHIR-99021; [2]) | pIC50 (CHIR-99021; [2]) | AUC (Zibotentan) | pIC50 (Zibotentan) | AUC (ABT-888) | pIC50 (ABT-888) | AUC ((5Z)-7-Oxozeaenol) | pIC50 ((5Z)-7-Oxozeaenol)
Hs683 (glioma, adherent) | 0.903 | < 5.70 | 0.932 | < 5.00 | 0.988 | < 4.70 | 0.979 | < 5.30 | 0.84 | 4.95 | 0.984 | < 5.99 | 0.815 | 5.24 | 0.179 | 8.47 | 0.968 | < 5.59 | 0.895 | < 5.00 | 0.985 | < 4.70 | 0.948 | < 5.30 | 0.797 | 5.32
Hs766T (pancreas, adherent) | 0.924 | < 5.70 | 0.911 | < 5.00 | 0.983 | < 4.70 | 0.977 | < 5.30 | 0.936 | < 4.80 | 0.981 | < 5.99 | 0.947 | < 4.99 | 0.2 | 8.53 | 0.932 | < 5.59 | 0.933 | < 5.00 | 0.981 | < 4.70 | 0.957 | < 5.30 | 0.764 | 5.32
Hs939-T (melanoma, adherent) | 0.718 | 6.26 | 0.964 | < 5.00 | 0.938 | < 4.70 | 0.94 | < 5.30 | 0.986 | < 4.80 | 0.986 | < 5.99 | 0.952 | < 4.99 | 0.496 | 7.51 | 0.964 | < 5.59 | 0.912 | < 5.00 | 0.985 | < 4.70 | 0.977 | < 5.30 | 0.377 | 6.56
HuCCT1 (biliary tract, adherent) | 0.876 | < 5.70 | 0.949 | < 5.00 | 0.929 | < 4.70 | 0.965 | < 5.30 | 0.736 | 5.29 | 0.946 | < 5.99 | 0.689 | 5.63 | 0.182 | 8.51 | 0.96 | < 5.59 | 0.895 | < 5.00 | 0.976 | < 4.70 | 0.967 | < 5.30 | 0.465 | 6.30
HuH-7 (liver, adherent) | 0.935 | < 5.70 | 0.914 | < 5.00 | 0.977 | < 4.70 | 0.902 | < 5.30 | 0.91 | < 4.80 | 0.986 | < 5.99 | 0.901 | < 4.99 | 0.129 | 8.67 | 0.987 | < 5.59 | 0.939 | < 5.00 | 0.983 | < 4.70 | 0.987 | < 5.30 | 0.79 | 5.35
HuO9 (osteosarcoma, adherent) | 0.904 | < 5.70 | 0.898 | < 5.00 | 0.96 | < 4.70 | 0.965 | < 5.30 | 0.642 | 5.59 | 0.901 | < 5.99 | 0.773 | 5.35 | 0.914 | < 6.29 | 0.984 | < 5.59 | 0.95 | < 5.00 | 0.983 | < 4.70 | 0.978 | < 5.30 | 0.571 | 6.00
IHH-4 (thyroid, semi-adherent) | 0.203 | 7.67 | 0.944 | < 5.00 | 0.993 | < 4.70 | 0.992 | < 5.30 | 0.859 | 5.04 | 0.993 | < 5.99 | 0.63 | 5.87 | 0.08 | > 8.70 | 0.992 | < 5.59 | 0.975 | < 5.00 | 0.99 | < 4.70 | 0.98 | < 5.30 | 0.297 | 6.72
IPC-298 (melanoma, adherent) | 0.825 | 5.93 | 0.987 | < 5.00 | 0.854 | 4.81 | 0.917 | < 5.30 | 0.898 | < 4.80 | 0.978 | < 5.99 | 0.746 | 5.49 | 0.308 | 8.03 | 0.986 | < 5.59 | 0.919 | < 5.00 | 0.987 | < 4.70 | 0.986 | < 5.30 | 0.304 | 6.75
JHH-1 (liver, adherent) | 0.892 | < 5.70 | 0.909 | < 5.00 | 0.88 | < 4.70 | 0.925 | < 5.30 | 0.877 | < 4.80 | 0.982 | < 5.99 | 0.561 | 6.02 | 0.166 | 8.56 | 0.985 | < 5.59 | 0.918 | < 5.00 | 0.985 | < 4.70 | 0.952 | < 5.30 | 0.671 | 5.71
JHH-2 (liver, adherent) | 0.914 | < 5.70 | 0.949 | < 5.00 | 0.929 | < 4.70 | 0.834 | 5.44 | 0.811 | 5.03 | 0.985 | < 5.99 | 0.547 | 6.06 | 0.955 | < 6.29 | 0.986 | < 5.59 | 0.966 | < 5.00 | 0.985 | < 4.70 | 0.986 | < 5.30 | 0.75 | 5.46
